# Results: the RNAGym collection of RNA variant scans (doi:10.1073/pnas.2313332121)
# This sample is rich in variants without activity.
# B1: TPR 5TU (parent)
# chain: GGAUCUUCUCGAUCUAACAAAAAAGACAAAUCUGCCACAAAGCUUGAGAGCAUCUUCGGAUGCAGAGGCGGCAGCCUUCGGUGGCGCGAUAGCGCCAACGUUCUCAACUAUGACACGCAAAACGCGUGCUCCGUUGAAUGGAGUUUAUCAUG
# Variants of: B1
# Test: polymerase ribozyme fitness, log enrichment relative to wild type (log ratio); higher = more active; in vitro selection for triplet polymerase activity
# How it was run: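 Libraries of mutants in each subunit of a heterodimeric triplet polymerase ribozyme were generated by PCR and transcribed. In triplicate, each went through one in vitro selection round: annealing with biotinylated primer, partner subunit and triplets; frozen incubation at −7 °C; gel excision of extended constructs; streptavidin-bead capture; RT-PCR. Fitness, taken from Illumina sequencing of input and output libraries, is the logarithm of a genotype's enrichment over wild-type enrichment, averaged across replicates with inverse-variance weights. The logarithm is base 2, and genotypes needed ≥10 input reads and ≥1 read per output to be kept.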
row,Variant,polymerase ribozyme fitness (log ratio)
1,U55G C93U U101G,-0.936
2,U56A C75U A89C C95A C99G G126A,≤ -4.2
3,U55G C63U G81U C87G U102G C116G A150C,≤ -4.2
4,U55C A98G A113U A142G,-2.98
5,U56G A66G C129A U146G,≤ -4.2
6,U56A C75A,≤ -4.2
7,U56C C87G C118U A119U,≤ -4.2
8,U55G U56A G94A A138G U151G,≤ -4.2
9,U56G A60U A64G A66C C87A,≤ -4.2
10,U56A G80U,-0.898
11,U55A G68A,-3.21
12,U55A G92U G124U G141C,-1.14
13,U55G C149A,≤ -4.2
14,U56A U104G A115C A142C,≤ -4.2
15,U56G C57G G80C A91C C99A C103U G133C A137C U148G C149U,≤ -4.2
16,U56G A60C C87A G128A A137C G141U,≤ -4.2
17,U56A C149A,-3.67
18,U55A U56A G59A,0.199
19,U56A C96U U145A G152A,-2
20,U56A C87A,≤ -4.2
21,U55G A91U A106G G117U,-4.18
22,U55G C96A C108G C116G A119C,≤ -4.2
23,U56A G70C G83U G143A,≤ -4.2
24,U55A G84A,-1.01

row,Variant,polymerase ribozyme fitness (log ratio)
1,U56A C87G A89C A119U G141A,≤ -4.2
2,U55A G92A,-2.69
3,U56A G67C G80A,≤ -4.2
4,U55C C72U A150U,0.059
5,U56A C57U G59U C87A,≤ -4.2
6,U55G G83A U104G U127G G143C,≤ -4.2
7,U55A G84A G86A C93U C105U,-1.1
8,U55G G58C G59U G67C U78A C95U A113G,≤ -4.2
9,U56G C76A U130G G141A,≤ -4.2
10,U55G U127G,-2.9
11,U55A G100C G126U G128C,≤ -4.2
12,U55G C75U,-0.769
13,U55A G81A G86A U109G A150G,≤ -4.2
14,U56A G58U C69U C95A C96A C118U,-2.19
15,U56A G58U A119G C131A,-2.04
16,U56A A91U A119U,≤ -4.2
17,U56A C85A C103G A122C,≤ -4.2
18,U56G C57A A66U C75G C85U A121U U134A U144C,≤ -4.2
19,U55G G83U C95U A147C,-1.88
20,U55A U56A G58C U78A G92A,≤ -4.2
21,U55A G84U A113C,-3.62
22,U56G A60G C99U U102A,-2.07
23,U56A C72U C76U C85U,-1.17
24,U56A C57A C85U C87U,-0.523

row,Variant,polymerase ribozyme fitness (log ratio)
1,U55A G126C,1.42
2,U56A U90G,≤ -4.2
3,U56A C93U U127C,-2.73
4,U55G U90A,≤ -4.2
5,U56A U90G C149U,≤ -4.2
6,U56G C103A A122U U146A,-2.78
7,U55G C63A C85U C103A,≤ -4.2
8,U55G G58U A64U G68U C79G C85U C93A G124C,≤ -4.2
9,U55G C69G U90C G92A A120U,≤ -4.2
10,U55G G80A C87U,-0.574
11,U55G G84A C118U,-0.685
12,U56A U78G G83A C129U,≤ -4.2
13,U56G G59U C87A,≤ -4.2
14,U56G A142U,-0.88
15,U55G C93A A98U A142U,-3.92
16,U56A U77G G84U G88A G133A,≤ -4.2
17,U55A U56G C75G,-4.19
18,U56A U82C G88C U144A,≤ -4.2
19,U56A A66C C69U G83U U135G,≤ -4.2
20,U55G G58C C76U G80A G88A C96G,≤ -4.2
21,U56A G141A,0.775
22,U56A G152A,-2.52
23,U56A G152U,-2.37
24,U56G C93A U127A U151G,≤ -4.2

row,Variant,polymerase ribozyme fitness (log ratio)
1,U55C G68A A91G,≤ -4.2
2,U55A G86U A91U G133U A147U,≤ -4.2
3,U55G C103G A106G A107G U127G G141A U144G,≤ -4.2
4,U55A G80A C85A,-1.39
5,U56A G58U C63A A115U C118U,-1.35
6,U56C A64U C93A C95U G133C,≤ -4.2
7,U56A A110C,-3.84
8,U56G G59A,-1.14
9,U55G G88U A113C A137G,≤ -4.2
10,U56A U104G C105A G124U G140A U145A,≤ -4.2
11,U56A U61G,-1.7
12,U56A G86A U90G G100A U139C G152C,≤ -4.2
13,U55G G81A G141C U146G,-2.62
14,U56A G59U C79A G94A C105A C149U,≤ -4.2
15,U55A G71A G80A G81A G86C C99U C116U G136C,≤ -4.2
16,U56G A66C G81A C87U G117A,≤ -4.2
17,U55G A60G A73U C76G G86U,≤ -4.2
18,U56A A60G,0.416
19,U55A G71C A106U C125A,≤ -4.2
20,U56A C79G A91G C105U U127G,≤ -4.2
21,U56A C103A A110G U144G,-3.91
22,U56A U82C C87G A150U,-3.31
23,U55A G141C,-0.199
24,U55A G68C C99A A150U,≤ -4.2

row,Variant,polymerase ribozyme fitness (log ratio)
1,U56G A97C,-1.65
2,U56A A89U U139C,≤ -4.2
3,U56A C87U A98U C116G,0.0809
4,U55A U90C C95U U146C C149A,≤ -4.2
5,U56A C85U G128U,-2.89
6,U55G C118U,-1.23
7,U55G G100A G128A A150G,≤ -4.2
8,U56A G58U A91U,≤ -4.2
9,U55G G83C U135A,-1.97
10,U55G C69U,-2.89
11,U55G C72U,-0.349
12,U56A A66G G68A G81C A89C,≤ -4.2
13,U56A G84C,-1.66
14,U56A G84U,-1.11
15,U56A U77C,-2.93
16,U55C G70A,-3.5
17,U56A G58A C87G G133U,≤ -4.2
18,U56A C132G A137U,-4.03
19,U55G G62A G92U C96A,-3.44
20,U55A G86A G88C A89U G143U,≤ -4.2
21,U56A G62U G74C G83A G152U,≤ -4.2
22,U55G G68A C76U C85G C99G,≤ -4.2
23,U56G C93U,-3.02
24,U55A G70C G94A C116G,≤ -4.2

row,Variant,polymerase ribozyme fitness (log ratio)
1,U56A A73U C87G C99G,≤ -4.2
2,U55G C85U C131U U134C,1.73
3,U56G A91G,-3.24
4,U56G G59U G80C C93A G126C,≤ -4.2
5,U56A C85A,-2.02
6,U55G G62A,-2.48
7,U56A G86C G124C U148A,≤ -4.2
8,U55A G92A A110U C123G,≤ -4.2
9,U55G C96U C108A,≤ -4.2
10,U56G G70U C76G C85U C93U G126U U130A G143C,≤ -4.2
11,U55A U61A C76G U77A G94C U146A,≤ -4.2
12,U55A G92A C125A,-3.46
13,U55A G74A C75U,≤ -4.2
14,U56A C79G C87G C96U A142G,≤ -4.2
15,U56A G74A U104A C131G U144G C149U,≤ -4.2
16,U56A G68U C85U U102G A113C G141A,≤ -4.2
17,U56A C79A C85U G92A C93G C96U,≤ -4.2
18,U55G C87U U130C,-0.00301
19,U56G G58C G68A,≤ -4.2
20,U56A C76U C87A A138G,≤ -4.2
21,U55G G83C U135A G136A C149A,≤ -4.2
22,U56A G58U A97C C99A,-2.52
23,U56G C79A C87U C93A U135A,≤ -4.2
24,U55G C72U G136C,-3.74

row,Variant,polymerase ribozyme fitness (log ratio)
1,U55G A115U A137C,≤ -4.2
2,U55G G68U,-3.91
3,U55G G68A,-3.69
4,U55G C85U U90A U127C C132G,≤ -4.2
5,U56A C57A C85G,-0.79
6,U55A U61G G92A A106C C123A G143C,≤ -4.2
7,U56C A60G U61G A66G C87U A122G,≤ -4.2
8,U56A G68U C93A A122C C125U,≤ -4.2
9,U56A C118G A150G,-2.41
10,U56A G117A,-0.176
11,U56A U61A C114G,-3.96
12,U56A G62A G92A G124C,≤ -4.2
13,U56A G92A U148G,≤ -4.2
14,U55G A110G U127C,≤ -4.2
15,U56G A150C,-3.51
16,U55A U78A C85U C93U,≤ -4.2
17,U55G A89U C132G,-3.98
18,U56A G59U C63G C87U,1.72
19,U56G C69A C76G C85G A122U,≤ -4.2
20,U56A U102A A107G,≤ -4.2
21,U56A C69A G84A,-1.63
22,U55A U82G U109C,≤ -4.2
23,U56A C93U C95U C103A C105A,≤ -4.2
